# In all, about 2,900 compounds were measured (“NF-kB SEAP reporter activity, fold change vs agonist alone”: median about 0.99, highest 2% from about 2.6 on). The list shows a part of the results.
# Assays:
# [1] = system: RAW-Dual; experiment: NF-kB SEAP reporter activity, fold change vs agonist alone; cytotoxicity flag (confluency mask): cytotoxic (confluency <70% of control); higher = enhanced NF-kB activity
# Summary of the method: (§1)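 After 50 nL of library stock was delivered by pin tool to RAW-Dual macrophages (50,000 cells/well, DMEM, 384-well plates), a PRR agonist was added 1 h later and the plates were kept at 37 °C, 5% CO2. Twenty hours later, IRF was read from supernatant by QuantiLuc luminescence and NF-κB by QuantiBlue absorbance at 620 nm. Reporter activity is stated as fold change over agonist-alone wells. Wells with IncuCyte confluency under 70% of agonist controls in both mask sets were counted as cytotoxic.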
# [2] = system: RAW-Dual; experiment: NF-kB SEAP reporter activity, fold change vs agonist alone; higher = enhanced NF-kB activity; details: library stock concentration (final ~1000-fold dilution): 10 mM
# Summary of the method: as §1
# [3] = system: RAW-Dual; experiment: NF-kB SEAP reporter activity, fold change vs agonist alone; cytotoxicity flag (confluency mask): not cytotoxic; higher = enhanced NF-kB activity
# Summary of the method: as §1
# [4] = agonist: ODN 1826 (TLR9) 0.5 ug/mL
# [5] = agonist: Pam2CSK4 (TLR2/6) 0.1 ug/mL
# [6] = agonist: Pam3CSK4 (TLR2/1) 0.1 ug/mL
# [7] = cytotoxicity flag (confluency mask): cytotoxic (confluency <70% of control), agonist: Imiquimod (TLR7) […]
# [8] = cytotoxicity flag (confluency mask): cytotoxic (confluency <70% of control), agonist: MPLA (TLR4) […]
# [9] = cytotoxicity flag (confluency mask): not cytotoxic, agonist: Imiquimod (TLR7) […]
# [10] = cytotoxicity flag (confluency mask): not cytotoxic, agonist: MPLA (TLR4) […]
structure (smiles),measurement,setting,value
CC1(C)CC[C@]2(NC(=O)C(C)(F)F)CC[C@]3(C)[C@H](C(=O)C=C4[C@@]5(C)C=C(C#N)C(=O)C(C)(C)[C@@H]5CC[C@]43C)[C@@H]2C1 (library stock concentration (final ~1000-fold dilution): 10 mM),NF-kB SEAP reporter activity,[1]; agonist: LPS (TLR4) 0.1 ug/mL,0.315
same,NF-kB SEAP reporter activity,[1]; [4],0.183
same,NF-kB SEAP reporter activity,[1]; [5],0.101
same,NF-kB SEAP reporter activity,[1]; [6],0.18
CC1(C)CC[C@]2(NC(=O)C(C)(F)F)CC[C@]3(C)[C@H](C(=O)C=C4[C@@]5(C)C=C(C#N)C(=O)C(C)(C)[C@@H]5CC[C@]43C)[C@@H]2C1,NF-kB SEAP reporter activity,[2]; [7],0.147
same,NF-kB SEAP reporter activity,[2]; [8],0.25
COc1ccc(-c2cc3nccn3c(Nc3ncccc3C(N)=O)n2)cc1OC.Cl.Cl,NF-kB SEAP reporter activity,[2]; [9],1.04
same,NF-kB SEAP reporter activity,[2]; [10],1.64
COc1ccc(-c2cc3nccn3c(Nc3ncccc3C(N)=O)n2)cc1OC.Cl.Cl (library stock concentration (final ~1000-fold dilution): 10 mM),NF-kB SEAP reporter activity,[3]; agonist: LPS (TLR4) 0.1 ug/mL,1.18
same,NF-kB SEAP reporter activity,[3]; [4],0.862
same,NF-kB SEAP reporter activity,[3]; [5],0.684
same,NF-kB SEAP reporter activity,[3]; [6],0.541
CCOC(=O)c1ccc(NC2CCCCC2)c(N)c1,NF-kB SEAP reporter activity,[2]; [9],1.14
same,NF-kB SEAP reporter activity,[2]; [10],1.57
CCOC(=O)c1ccc(NC2CCCCC2)c(N)c1 (library stock concentration (final ~1000-fold dilution): 10 mM),NF-kB SEAP reporter activity,[3]; agonist: LPS (TLR4) 0.1 ug/mL,2.07
same,NF-kB SEAP reporter activity,[3]; [4],1.28
same,NF-kB SEAP reporter activity,[3]; [5],0.963
same,NF-kB SEAP reporter activity,[3]; [6],1.09
CCOC(=O)C1=C(C)NC(C)=C(C(=O)OC)C1c1cccc(Cl)c1Cl (stereo not drawn),NF-kB SEAP reporter activity,[2]; [9],1.53
same,NF-kB SEAP reporter activity,[2]; [10],0.952
CCOC(=O)C1=C(C)NC(C)=C(C(=O)OC)C1c1cccc(Cl)c1Cl (stereo not drawn) (library stock concentration (final ~1000-fold dilution): 10 mM),NF-kB SEAP reporter activity,[3]; agonist: LPS (TLR4) 0.1 ug/mL,0.607
same,NF-kB SEAP reporter activity,[3]; [4],0.648
same,NF-kB SEAP reporter activity,[3]; [5],0.408
same,NF-kB SEAP reporter activity,[3]; [6],0.423
CC(OC1OCCN(Cc2n[nH]c(=O)[nH]2)C1c1ccc(F)cc1)c1cc(C(F)(F)F)cc(C(F)(F)F)c1 (stereo not drawn) (library stock concentration (final ~1000-fold dilution): 10 mM),NF-kB SEAP reporter activity,[3]; agonist: LPS (TLR4) 0.1 ug/mL,0.29
same,NF-kB SEAP reporter activity,[3]; [4],0.233
same,NF-kB SEAP reporter activity,[3]; [5],0.109
same,NF-kB SEAP reporter activity,[3]; [6],0.175
CC(OC1OCCN(Cc2n[nH]c(=O)[nH]2)C1c1ccc(F)cc1)c1cc(C(F)(F)F)cc(C(F)(F)F)c1 (stereo not drawn),NF-kB SEAP reporter activity,[2]; [9],0.394
same,NF-kB SEAP reporter activity,[2]; [10],0.374
Cc1cc(O)c(-c2ccc(C(C)CN(C)C)cc2)c2c1[nH]c(=O)c1sccc12.Cl.Cl (stereo not drawn),NF-kB SEAP reporter activity,[2]; [7],1.2
same,NF-kB SEAP reporter activity,[2]; [8],1.37
Cc1cc(O)c(-c2ccc(C(C)CN(C)C)cc2)c2c1[nH]c(=O)c1sccc12.Cl.Cl (stereo not drawn) (library stock concentration (final ~1000-fold dilution): 10 mM),NF-kB SEAP reporter activity,[1]; agonist: LPS (TLR4) 0.1 ug/mL,0.764
same,NF-kB SEAP reporter activity,[1]; [4],0.357
same,NF-kB SEAP reporter activity,[1]; [5],0.311
same,NF-kB SEAP reporter activity,[1]; [6],0.482
CN1CCN(Cc2ccc(-c3cnc4[nH]cc(-c5ccc6[nH]ccc6c5)c4c3)cc2)CC1 (library stock concentration (final ~1000-fold dilution): 10 mM),NF-kB SEAP reporter activity,[3]; agonist: LPS (TLR4) 0.1 ug/mL,0.216
same,NF-kB SEAP reporter activity,[3]; [4],0.181
same,NF-kB SEAP reporter activity,[3]; [5],0.0629
same,NF-kB SEAP reporter activity,[3]; [6],0.138
CN1CCN(Cc2ccc(-c3cnc4[nH]cc(-c5ccc6[nH]ccc6c5)c4c3)cc2)CC1,NF-kB SEAP reporter activity,[2]; [9],0.132
same,NF-kB SEAP reporter activity,[2]; [10],0.242
O=C(NNc1nc2cc(F)ccc2n2cccc12)c1cnccn1 (library stock concentration (final ~1000-fold dilution): 10 mM),NF-kB SEAP reporter activity,[3]; agonist: LPS (TLR4) 0.1 ug/mL,1.09
same,NF-kB SEAP reporter activity,[3]; [4],0.874
same,NF-kB SEAP reporter activity,[3]; [5],0.922
same,NF-kB SEAP reporter activity,[3]; [6],0.894
O=C(NNc1nc2cc(F)ccc2n2cccc12)c1cnccn1,NF-kB SEAP reporter activity,[2]; [9],0.884
same,NF-kB SEAP reporter activity,[2]; [10],0.953
CCCCCCCCCCCCCCCc1cccc(O)c1C(=O)O (library stock concentration (final ~1000-fold dilution): 10 mM),NF-kB SEAP reporter activity,[3]; agonist: LPS (TLR4) 0.1 ug/mL,0.78
same,NF-kB SEAP reporter activity,[3]; [4],0.942
same,NF-kB SEAP reporter activity,[3]; [5],0.845
same,NF-kB SEAP reporter activity,[3]; [6],0.987
CCCCCCCCCCCCCCCc1cccc(O)c1C(=O)O,NF-kB SEAP reporter activity,[2]; [9],0.943
same,NF-kB SEAP reporter activity,[2]; [10],0.949
CC(C)c1cc(C(C)C)c(CC(=O)NS(=O)(=O)Oc2c(C(C)C)cccc2C(C)C)c(C(C)C)c1 (library stock concentration (final ~1000-fold dilution): 10 mM),NF-kB SEAP reporter activity,[3]; agonist: LPS (TLR4) 0.1 ug/mL,1.39
same,NF-kB SEAP reporter activity,[3]; [4],0.949
same,NF-kB SEAP reporter activity,[3]; [5],0.266
same,NF-kB SEAP reporter activity,[3]; [6],0.733
CC(C)c1cc(C(C)C)c(CC(=O)NS(=O)(=O)Oc2c(C(C)C)cccc2C(C)C)c(C(C)C)c1,NF-kB SEAP reporter activity,[2]; [9],0.913
same,NF-kB SEAP reporter activity,[2]; [10],0.911
COC(=O)/C=C/C(=O)OC,NF-kB SEAP reporter activity,[2]; [9],0.885
same,NF-kB SEAP reporter activity,[2]; [10],0.927
COC(=O)/C=C/C(=O)OC (library stock concentration (final ~1000-fold dilution): 10 mM),NF-kB SEAP reporter activity,[3]; agonist: LPS (TLR4) 0.1 ug/mL,0.79
same,NF-kB SEAP reporter activity,[3]; [4],0.844
same,NF-kB SEAP reporter activity,[3]; [5],0.645
same,NF-kB SEAP reporter activity,[3]; [6],0.624
Nc1ncn(C2OC(CO)C(O)C2O)c(=O)n1 (stereo not drawn) (library stock concentration (final ~1000-fold dilution): 10 mM),NF-kB SEAP reporter activity,[3]; agonist: LPS (TLR4) 0.1 ug/mL,1.06
same,NF-kB SEAP reporter activity,[3]; [4],1.91
same,NF-kB SEAP reporter activity,[3]; [5],0.631
same,NF-kB SEAP reporter activity,[3]; [6],0.71
Nc1ncn(C2OC(CO)C(O)C2O)c(=O)n1 (stereo not drawn),NF-kB SEAP reporter activity,[2]; [9],2.59
same,NF-kB SEAP reporter activity,[2]; [10],2.47
CCN1C(=O)C=CC1=O (library stock concentration (final ~1000-fold dilution): 10 mM),NF-kB SEAP reporter activity,[1]; agonist: LPS (TLR4) 0.1 ug/mL,0.254
same,NF-kB SEAP reporter activity,[1]; [4],0.661
same,NF-kB SEAP reporter activity,[1]; [5],0.125
same,NF-kB SEAP reporter activity,[1]; [6],0.804
CCN1C(=O)C=CC1=O,NF-kB SEAP reporter activity,[2]; [7],1.53
same,NF-kB SEAP reporter activity,[2]; [8],0.608

# Source: the supplement of paper PMC10037445
